# Screen size: about 310,000 compounds; about 14,000 (4.5%) showed an effect of 50% or more. The effect is printed as a negative number. This is one part of the list.
# Target: human ether-à-go-go-related gene (hERG) potassium channel (human, UniProt Q12809)
# Experiment: primary screen, population patch clamp on CHO cells stably expressing hERG
# 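Also: peak tail current of the secondary pulse compared with the same well before compound.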
# human ether-à-go-go-related gene (hERG) potassium channel, sequence (Q12809 whole entry, looked up): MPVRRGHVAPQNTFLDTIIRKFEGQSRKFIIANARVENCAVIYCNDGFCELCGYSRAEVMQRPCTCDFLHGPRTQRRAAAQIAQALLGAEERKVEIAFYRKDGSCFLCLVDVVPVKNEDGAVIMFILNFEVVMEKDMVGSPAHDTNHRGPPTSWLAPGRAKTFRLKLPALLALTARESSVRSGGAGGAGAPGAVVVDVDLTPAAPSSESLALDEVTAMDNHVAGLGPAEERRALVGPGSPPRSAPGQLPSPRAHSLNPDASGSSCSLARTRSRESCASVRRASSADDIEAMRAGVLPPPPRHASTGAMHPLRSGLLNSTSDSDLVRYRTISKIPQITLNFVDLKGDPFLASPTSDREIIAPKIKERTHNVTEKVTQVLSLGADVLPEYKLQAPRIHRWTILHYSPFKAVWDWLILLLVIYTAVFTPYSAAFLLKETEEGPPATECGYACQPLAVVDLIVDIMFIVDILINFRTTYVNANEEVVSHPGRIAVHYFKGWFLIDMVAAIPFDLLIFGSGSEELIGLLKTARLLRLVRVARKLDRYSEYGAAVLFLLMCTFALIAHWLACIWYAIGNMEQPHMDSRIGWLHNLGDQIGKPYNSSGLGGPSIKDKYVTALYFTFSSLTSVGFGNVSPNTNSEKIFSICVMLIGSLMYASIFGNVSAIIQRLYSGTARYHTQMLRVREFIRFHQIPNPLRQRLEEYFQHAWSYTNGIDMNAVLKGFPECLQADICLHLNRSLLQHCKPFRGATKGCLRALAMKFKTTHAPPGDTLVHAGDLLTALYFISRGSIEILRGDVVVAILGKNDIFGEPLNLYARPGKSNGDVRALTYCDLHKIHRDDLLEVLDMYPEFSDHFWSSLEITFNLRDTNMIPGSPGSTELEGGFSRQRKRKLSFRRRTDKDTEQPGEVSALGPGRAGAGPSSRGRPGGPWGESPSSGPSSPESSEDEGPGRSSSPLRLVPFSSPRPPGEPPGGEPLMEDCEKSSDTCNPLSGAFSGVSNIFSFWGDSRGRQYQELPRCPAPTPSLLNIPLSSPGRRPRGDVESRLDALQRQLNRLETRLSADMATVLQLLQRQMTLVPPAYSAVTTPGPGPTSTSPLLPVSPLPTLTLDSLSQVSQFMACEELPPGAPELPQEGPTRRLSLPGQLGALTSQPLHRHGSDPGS
row,Compound,"hERG current change (%, negative = inhibition) at 10uM [%]"
1,Cc1ccc2[nH]c(=O)c(CN(CCO)C(=O)N(C)C)cc2c1,5.5
2,COCCCn1c(Cc2csc(Nc3ccccc3)n2)nnc1SCC(N)=O,14.8
3,CCN(CC)CCn1c(-c2ccccc2)nc(=S)c2c1CC(C)(C)OC2,2.59
4,O=C(c1sc2ccccc2c1Cl)N1CCN(c2ncccn2)CC1,-9.78
5,Cc1cccc(Cn2c(=O)oc3ccc(C)cc32)c1,2.47
6,CCC(C)NC(=O)C1CCC(CNS(=O)(=O)c2ccccc2)CC1 (centres unmarked),14.4
7,CCC(C#CCN1CCOCC1)(CC)OCCC#N,6.36
8,CC(=O)c1c(C)[nH]c(C(=O)Nc2ccc(C)c(C)c2)c1C,20.5
9,Cc1noc(NC(=O)c2ccc(Cl)c(Cl)c2)c1Cl,10.1
10,CCCn1c(N)c(CC)c(=O)[nH]c1=O,30
11,Cl.O=C1CC(N2CCN(Cc3ccccc3)CC2)C(=O)N1c1ccc2c(c1)OCCO2 (centres unmarked),5.38
12,O=c1c(C=NCc2cccnc2)c(C(F)(F)F)[nH]n1-c1nc2ccccc2s1,9.04
13,O=C(c1ccc2c(c1)OCO2)N(Cc1cccs1)C1(C(=O)NC2CCCCC2)CCCCC1,-19.4
14,Cc1ccc(-n2[nH]c(C)c(C=Nc3ccc(C)cn3)c2=O)cc1,1.75
15,O=C(O)c1cc2cc(Cl)cc(Cl)c2oc1=O,9.15
16,C[N+]1(CCC(C(N)=O)(c2ccccc2)c2ccccc2)CCCCC1.[Br-],10.7
17,O=c1[nH]c(CN(CCO)CCO)nc2c1C1(CCCCC1)Cc1ccccc1-2,-10.9
18,C=CCn1c(CCc2ccccc2)nnc1SCC(N)=O,-5.61
19,O=C(CSCc1ccccc1F)NCc1ccccc1,17.4

row,Compound,"hERG current change (%, negative = inhibition) at 10uM [%]"
1,CCN(CC(=O)Nc1ccc(NC(C)=O)cc1)C(=O)/C=C/c1ccc2c(c1)OCO2,0.823
2,CCCN1CCC[C@@H](c2cccc(O)c2)C1.Cl,-43.1
3,CN(C)C1(CNC(=O)Nc2ccccc2)CCCCC1,-3.27
4,COc1cccc(C(=O)OCC(=O)NC(=O)NC2CCCC2)c1O,19.4
5,Nc1cc(N)cc(C(=O)OCC(=O)Nc2cc(S(=O)(=O)N3CCCCC3)ccc2Cl)c1,-2.12
6,COc1cc2c(cc1OC)C1(Nc3c-2c(C)nn3-c2ccccc2)C(=O)Nc2ccccc21 (centres unmarked),3.78
7,Cc1ccc(C(c2c(C)[nH][nH]c2=O)c2c(C)[nH][nH]c2=O)cc1,16.1
8,CCOc1ccc(N2CC(C(=O)Nc3ccncc3)CC2=O)cc1 (centres unmarked),-23.1
9,CCN(CC(=O)NCc1ccc(Cl)cc1)S(=O)(=O)c1ccc(NC(C)=O)cc1,-39.7
10,O=c1c2cccnc2n(-c2ccccc2)n1Cc1c(Cl)cccc1Cl,19.9
11,CCOC(=O)c1cc(NC(=O)COC)ccc1O,9.32
12,COCCn1c(SCC(=O)Nc2cc(Cl)ccc2OC)nc2c(c1=O)SC(C)C2 (centres unmarked),-40.9
13,Fc1ccc(N2CCN(C(=S)NCC3CCCO3)CC2)cc1 (centres unmarked),9.58
14,O=C(Cc1ccc([N+](=O)[O-])cc1)Nc1ccc2c(c1)C(=O)NC2=O,-17.1
15,COc1ccc(C(C(=O)NCC2CCCO2)N(C(=O)Cn2nnc3ccccc32)c2ccccc2C(C)=O)cc1OC (centres unmarked),-43.5
16,CC1(C)Cc2c(sc3nn[nH]c(=O)c23)CO1,7.54
17,COc1cc(NC(=O)c2ccco2)c(OC)cc1NC(=O)c1cc(OC)c(OC)c(OC)c1,8.6
18,O=C(NN=C(Cc1ccccc1)Cc1ccccc1)c1ccncc1,-20.4
19,Cc1ccc(Cn2nc(C)c(C(=O)NCC(c3ccc(F)cc3)N3CCOCC3)c2Cl)cc1 (centres unmarked),-16.7

row,Compound,"hERG current change (%, negative = inhibition) at 10uM [%]"
1,NCCCC[C@@H]1NC(=O)c2cc([N+](=O)[O-])cc(I)c2SC[C@@H](C(N)=O)NC(=O)[C@H](CCC(N)=O)NC1=O,15.1
2,CC1CCCCN1C(=O)CSc1nc(N)cc(=O)[nH]1 (centres unmarked),16.9
3,NS(=O)(=O)c1cccc(NC(=O)CSc2n[nH]c(-c3cccs3)n2)c1,1.96
4,CN(C)C=O.N#Cc1ccccc1OCC(=O)OCC(=O)c1ccc2c(c1)NC(=O)CO2,0.877
5,Cc1ccc(NC(=O)CN2CCCC2)cc1.Cl,19.1
6,CC(C)(O)C#Cc1ccc(CN2CCCC(CO)(Cc3cccc(Cl)c3)C2)cc1 (centres unmarked),-6.28
7,CCOC(=O)Cc1nn(Cc2nc(-c3ccc(C#N)cc3)cs2)c(=O)c2ccccc12,-39.9
8,O=C(c1cccc([N+](=O)[O-])c1)N1CCN(Cc2ccc3c(c2)OCO3)CC1,-44.3
9,O=C(CN1CCCc2ccccc21)NC(=O)NCc1ccccc1,8.1
10,Clc1ccc(-n2nnc(-c3cccnc3)n2)cc1Cl,-30.7
11,O=C1CC(c2ccccc2Oc2cccc(Cl)c2)C(n2cncn2)C(=O)C1C1NCCc2ccccc21 (centres unmarked),-4.4
12,Nc1ccc(Oc2ccc3nc(-c4ccccc4)c(-c4ccccc4)nc3c2)cc1,-3.09
13,Cc1ccc2nc(NC(=O)C3CCCN(S(=O)(=O)c4cccc5nsnc45)C3)sc2c1 (centres unmarked),6.75
14,O=C1CCCC/C1=C/Nc1ccc(S(=O)(=O)Nc2ncccn2)cc1,4.04
15,CCOC(=O)C1=C(C)NC2=C(C(=O)CC(C)(C)C2)C1c1ccsc1 (centres unmarked),4.62
16,COc1ccc(C(=O)NCCNC(=O)c2ccccn2)cc1,18.7
17,CC[C@@H](Nc1ncnc2c1oc1ccccc12)C(=O)O,13.1
18,CC1(C)NC(=O)N(CC(=O)NNC(=O)c2ccccc2F)C1=O,3.42

# From PMC4336329 (PLoS ONE, 2015)
